# Test results as given in paper PMC11444770, “Moesin contributes to heat shock gene response through direct binding to the Med15 subunit of the Mediator complex in the nucleus” (Open Biology, 2024).
# By UniProt entry, the sequences of proteins in these tests, tags left out. Where a name states a change or a piece, a line headed by the entry shows the natural chain unless it says otherwise. Residues count along the entry.
# UniProt P46150: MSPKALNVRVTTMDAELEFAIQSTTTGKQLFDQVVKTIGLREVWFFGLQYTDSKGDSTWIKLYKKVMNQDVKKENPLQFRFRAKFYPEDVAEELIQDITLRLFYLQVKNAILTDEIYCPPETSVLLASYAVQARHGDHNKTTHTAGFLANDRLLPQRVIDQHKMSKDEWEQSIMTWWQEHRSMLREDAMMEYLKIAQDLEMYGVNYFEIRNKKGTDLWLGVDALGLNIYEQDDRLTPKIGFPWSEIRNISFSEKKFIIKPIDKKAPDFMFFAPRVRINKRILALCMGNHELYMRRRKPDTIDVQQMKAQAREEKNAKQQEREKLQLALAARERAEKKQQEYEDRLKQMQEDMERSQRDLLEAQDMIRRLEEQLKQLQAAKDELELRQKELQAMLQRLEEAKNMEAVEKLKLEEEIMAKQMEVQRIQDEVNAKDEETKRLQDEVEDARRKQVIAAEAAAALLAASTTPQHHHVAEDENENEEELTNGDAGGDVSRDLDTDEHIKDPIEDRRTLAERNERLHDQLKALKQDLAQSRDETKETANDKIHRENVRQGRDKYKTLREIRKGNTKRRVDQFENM
# GST-FERM-Moesin: residues 1-484 of P46150
# No constants are given. Whether binding was seen depends on the method and setting. Binding seen in cells or lysates may run through a third protein. Some entries that bind do so weakly or less than the wild type. For some assays here: Where a sequence is shown, tags or fusion partners need not be part of it.
# Biological target: GST-FERM-Moesin (Drosophila melanogaster) (UniProt P46150)
# Assay: pull-down; GST-IVTT binding assay: GST-FERM-Moesin immobilised on glutathione beads, 35S-methionine-labelled IVTT preys; 50 mM Hepes pH 7.5, 150 mM NaCl, 2 mM MgCl2, 1 mM EGTA, 1 mM DTT, 0.1% Triton X-100, 0.5 mg/ml BSA; 1.5 h at 4°C; autoradiography; only the target purified
row,Binder,binding
1,"Med15 (IVTT) (protein, UniProt Q9Y149 1-749, 35S-Methionine labelled) MTEDWQSQKFRQNVISKIHDLLPPNAQDQTKNAGVMENHIFRKSRTKDEYLGLVAKLFMHYKDMSRKSQQQQQQQQQQGGPPPNAEMGGGQNMMQDPLNALQNLASQGNRNPQMMPMGAGGGAPVPGGPGTASNLLQSLNQQRPGQQQMQPMSNIRGQMPMGAGGAGAQQMMQVQQMQQGGNAPGVMNVMGAGGGQNQGQIVGNPGQQMGVGVGMPNQMVGPGPNSGPAVGGAGGPNAAPGAGGPGPNQMQGGPMNVNAMQQMPPMQQIQQNQLGMGMNPMMRMGQGNGMGGPQGMPGQGMQGMPQGPHNVVGGPAGQQQVGGAGLPPNAVQQGGMNPMGGMGVNMPPNLQQKPNMPMGQAGQMFPGNRGGVGVGGQQPGQPFMRSSPSPADAQQLQQQAQLQQMQQQQQQLVVGNQTPTQQPPTPQMPTPNMIPSPALVPQSSPQMMQMQNSQRNIRQQSPSASINTPGQVTGNSPFNPQEEALYREKYKQLTKYIEPLKRMLAKISNDGTNVEKMTKMSKLLEILCNPTQRVPLETLLKCEKALEKMDLISYSGQQFGKSSNPLLEVINTTLQSPVANHTLYRTFRPTLELLFGTDITAPVPAKRPRVEEKSTSFEQEVPHVLQGEIARLDTKFKVKLDTTSQINNKAIRLICCLDDKRLPSVPPVSVSVPEEYPWQAPDCSLAEQEYSATPFLQTVQQALIARISKLPKNYSLSHLLDTWEMAVRQACSPQSKPRAVCELSTLLGV",binds
2,"Med17 (IVTT) (protein, UniProt Q9VEC1 1-642, 35S-Methionine labelled) MSNSVNISVETTCENQIREIGYDGTELYQPPPTLSESLAKCAARIDFSKTSLDDLKKEEKSAAAAADEDKDATQFQESLWPWDAVRNKLKDALTEICVLSDVISIAKDKRYLVLDPLLEEADDTKPIVQVYSRKKAISQAAQVLLSGAERLRNAHSEQRNRNVSDFHIELLRLRQNWRLKKVSNAIIGDLSYRTAGSKFGMSGTFEVTKAEETGDEDTASSSNSSSSVSGNNGMQLKASSALRVIVPAELQGVAYIKVITQKDQEDLCTAQLNLMGHGPNITAQVGVWQKTLEFAQNVLFCKELFAQLAREAIQLQAPIPHVVIGNQIRATLLPNIQLIISLCHSTTFDSSQPAPINDHDHVLEHSLHQLLREVHYKNSHHPFPHPASAPLGPTKKRMLAGPMAADRETLLDMTKSQTILEQIIAQAQHIFMRKRTQYVLDTLARDVKDPQIVSHWNAMNSPTMSCVKINIVTHGYDAIGRTSLVIHVKERSLKCICRDGRVMRLSYEPQELRDLILCQINSHQISCLISLARCMSWTVLSNSNHLGIGKVEPLGNASSCLLASPNSDRMIAVQIRCDPQIDVKVYIARSPRQDFFPSPLVPEKLWENLGGTFKEVRFDKIEGKSFLNKMEFLMASLTSNTA",binds
3,"Med6 (IVTT) (protein, UniProt Q8MSX2 1-249, 35S-Methionine labelled) MASRQMTNDHLRLSWHDTQMMATLSPQTVMDYFCRKSNPFYDHMCNNETVRMQRLGPEHLHNMIGLEYILLHVAEPILYVIRKQHRHNPSEATPIADYYIIGGTVYKAPDLANVINSRILNTVVNLQSAFEEASSYARYHPNKGYTWDFSSNKVFSDRSKSDKKDANSAKDENSGTLFQKQRVDMLLAELLRKFPPPIPPMLQNLQQPPPAGDDLNTARNASEMNNATGPLDIKTEGVDMKPPPEKKSK",no binding
4,"Med8 (IVTT) (protein, UniProt A1ZBT5 1-252, 35S-Methionine labelled) MQRDEKLFELTLDTVLQRLNDLKLAVLSMIQKLELEYETINWPTFLDNFAIISSHLTGLTKILAKEQCPPLRNRTVLPLLVSMDRDDTLINITEGRVPVFSHDIVPDYLRTRPDPITEQKMLQNEQKAANLTNDAAMKQVTQYNKVVSHVLDMVSKAREEWEIESSSRTGIQQTSSMADTQLLVAAVGMGKGLKLTNYGPGPGMMVPPSIRAPSPMGGPAMSPGNVQQQLGKAPSAVKTNIKSANQVHPFSR",no binding
5,"Med11 (IVTT) (protein, UniProt Q9VVS4 1-176, 35S-Methionine labelled) MNPLDKIHALDEIEKEIILCMQSAGQALQELGKEKSSQKNAETQSQQFLKSLSSVESKLSEQINYLTQVSTGQPHEGSGYASAKVLQMAWHRIQHARSRVRELEETKAKHSHAARQQLKRQQEHAAAQQQQQQQQQQQQQQQQMQQAAQQQQQQTGGGNAGSGDHPMGGDSSMSTN",no binding
6,"Med16 (IVTT) (protein, UniProt Q9W278 1-818, 35S-Methionine labelled) MTILYKVEGKEFSKDSVFPHKKVLCSVSARNIVAFSALQSAIFPASHGGDAGDGSLPGAGLAVGASNSHVYVCDIVTPWEYYKVCSSKSLISVLQWSPNGEQLLLGYVGGRVEIWQPRNQSINLWVLQYYATVPSEDIIEAQFFQNGKGVIFNALKKDHTYYAEKFERVEQQRPTLSGFGGVASEGCVLLTSSGLLAAFSLPAIQKTSAAGADGPAHEVVELTPALHSIGISRSFIEHCSMTPSPSGALNIAFSCGWQQQLVQCFKVSLSLEGELGLEQHLAIKSESQTSIFLGPLDGRRISHLKWTRIANEDVIFIAYACPDGAGSQLEQWTLTRRHQSVHALLQGGGGANNKPNEFVQSESWEQVGKVQLNASLADISVTRLSVSTPDSCQVYAILQDNSVQVLEPNSMKQLNHTQFDRLSDASGAVKFVSGDLTPSSQILLIFDSHAQLYAMQAPLPKQGGSGLLLLEYCIVTGCDASDVLLLNLGNLEALVEKLTDNFTRQPSFVRHFYYANFLALKSNICRMQQQEFDNLIILHAISTTFKSLLRPSDLGFQDKGPADNLAIKLAESIPDVDTVMLNLDAKDFTVEPVMLQSLQQLIQWVTDLALNMLHRLPEEVMKTKLSGKRPSYDISRDIVAISSLRELLVMIRIWGLLNTQCLPVYTKTMDNIDVLVILFRLLTRLAQNPAEPDEMLLDECSLLSKQLLIPQPTKFNPTTLLSAQGFAAVKSGQLQFTSMEEPTCLQDMETEEVVFASSVKDGVSNLQLGARPSHIRRCARCGFVFVNNASKVAKTSALKAWFSKWLHCHCGGFWKQVH",no binding
7,"Med22 (IVTT) (protein, UniProt Q9V439 1-143, 35S-Methionine labelled) MASGSRTTILPQSKEALLKSYNARLKDDVRSMLENFEEILKLARRESHSQISKTTQCEQDALEMQVRAANMVRAGESLMKLVADLKQYLILNDFHSVNEAITNNSQLFRNTQSECDKKLMKLRDEMAMDLYDLEEEYYTSIFK",no binding
8,"Med23 (IVTT) (protein, UniProt Q9W1X7 1-1439, 35S-Methionine labelled) METQVIDTVNEFLKVDSLDEAFVSVIVFKPNTEQERATRFANDLVTAFGNVAQENREQVLRLYLLRAAGASGYHIKVLMAALVKLVDAHVITARMLCDKVLMCEKLDFEHRTFWIESFRLIKRVIVQVDYKGVREIMKVCRDKAQWFPLNVNVTYMPQLLAVEDILRFIFDRNNCLLPAYFIANEIMRPFPYHWKLNRLMTDFVEEFRTTAQMVSIIGHASMLPIVEHFGYADHMMNSWRLDHNTLKFNFKGSLPYEPELLEEQKPLLRYVLEQPYSREMVSQMLNLQKHQKQRYNALEEQLVNLIVQAMEMTEANDATAGSGFNSSDEQITPYEWMWLHLSSQLIYFVLFQFVSFMHIVLALHEKLSKLELRKGRDQLMWILLQFISGSIQKNPITNFLPVFRLFDLLYPELEPLKLPDINKSSMVRHMAPICVWIHLMKKARVENMNITRPLPIALKNHYDFLQHLVTANTMMNMTLGNDFRIILICNAYSTNQEYFGRPMGLLLDALNGTSKSPNGGQIPAVTFSVTVLDSLTVHSKMSLIHSFVTQMLKQAQSKGQVPAAALLETYARLLVYTEIESLGIKGFLSQLMPTVFKNHAWAMLHTLMEMFSYRLHHVPTHYRVQLLSLLHSLSSVPQTNKMQLNLCFESTALRLITSIGSAEFQPQFSRYFNDKSPGAVASNESEELNRVLILTLARSMHVHGGGDEMQGWCKDFLSNIIQHTPHSWPMHSLACFPPALNEYFTQNNQPPENKQQLKKAVEEEYRTWTSMTNENDIIAHFLRPTTNPLFLCLLFKIIWETENISPVAYKILEGISARALSTHLRKFCDYLVAEVASSSDGRDFIHKCVDTINNMIWKFNVVTIDRVVLCLALRTHEGNEAQVCFLIIQLLLLKASELRNRVQEFCKDNNPDHWKQSNWQDKHLSFHQKYPEKFALDESASQIPLPVYFSNVCLRFLPVLDVVVHRFIELTITNVHQILGFILDHLSILYKFHDRPITYLYNTLHYYERILRDRPALKKKLVGAITSAFSEIRPPNWSVSEPYKVYLQSQDSLWTPELSYYMSLIRRLADTISGKNVFYSTDWRFNEFPNAPTHALYVTCVELLGLPVAPPLVASNLIDVIVSGYAVIPQKDIHSYINAVGIVLAALPEPYWSGIYDRLQDMLNTPNMLNWTYRFNAFELFNFKTVREAMLEKTYAVVLAVAHSVFHHMGAFKLAAMTRYLKEKLKPCVRTEQQLLYLCHVFGPFLQRIELEKPNAVAGIAVLLYEILEIVDKHHGPKPLQYMDQICDFLYHIKYIHVGNIIKNESEAIIKRLRPLLQMRLRFITHLNLEDIHTEKINDNTSNNAITSQTQSPMQTQHQQQPQQPHQQQQQQQQQQQQQQQQQQQQQQMQQQQINAVQTTSVPLGSGGNLQQQQQINQQQQMYMQHMQQHQHMQNMRHN",no binding
9,"Med27 (IVTT) (protein, UniProt Q9VNG0 1-293, 35S-Methionine labelled) MDKLNSTLTAVKNLRSNVRLCFEHLADGTDGESGEESRNKFVNDFQERFAAINSQIREVEQLINGLPVPPTPYSLGNTAYLAQETSQDRQALYPQLVNSYKWMDKVHDHSFLAFNNLNQNTLRRSYNYCSQKRQRLPFSSFNNDPDHIDKLLSEINTPPHTSYRIFRPFGTNAVTIVTISNVMKAAIVFKGVLIEWVTVKGFDEPLEHDDLWAESRYEVFRKVQDHAHSAMLHFFSPTLPDLAVKSYITWLNSHVKLFLEPCKRCGKFVVNGLPPTWRDLRTLEPFHEDCRNC",no binding
10,"Med31 (IVTT) (protein, UniProt Q8IH24 1-204, 35S-Methionine labelled) MAKMYGKGKTAIESEELQKRRWQIELEFVQCLSNPNYLNFLAQRGFFKDQSFINYLKYLQYWKEPDYAKYLMYPMCLYFLDLLQYEHFRREIVNSQCCKFIDDQAILQWQHYTRKRIKLIENVTAAQQQQQQLQQQQQQANGMEAATGGESAAPTPNVNGSASTADSQQTSSALQPVQAQPGNPQQQQQINGVASGANIKLELN",no binding

# Biological target: Moesin-NYFP (Drosophila melanogaster) (UniProt P46150)
# Assay: split reporter; split YFP (BiFC) in living, unstressed S2R+ cells, 2 days after transfection; confocal microscopy, percent of YFP positive cells
row,Binder,binding
1,"Med6-CYFP (protein, UniProt Q8MSX2 1-249) MASRQMTNDHLRLSWHDTQMMATLSPQTVMDYFCRKSNPFYDHMCNNETVRMQRLGPEHLHNMIGLEYILLHVAEPILYVIRKQHRHNPSEATPIADYYIIGGTVYKAPDLANVINSRILNTVVNLQSAFEEASSYARYHPNKGYTWDFSSNKVFSDRSKSDKKDANSAKDENSGTLFQKQRVDMLLAELLRKFPPPIPPMLQNLQQPPPAGDDLNTARNASEMNNATGPLDIKTEGVDMKPPPEKKSK",binds
